Source: PubChem BioAssay AID1347120 (National Center for Advancing Translational Sciences (NCATS), 2019)
“And” between values parts separate entries of the source, which are not always exact repeats. Identical values can stand only once. About 930 (0.24%) of roughly 390,000 compounds were called active. This list was built around the results that the source calls inconclusive (neither active nor inactive); the mix of calls is not that of the screen. Calls come from the whole dose curve; as a rule, active = well fitted activation curve with a large enough effect; inconclusive = small, poorly fitted or top-dose-only effect; inactive = no such curve, though single readings can be large or run the other way. A potency beside an inconclusive call is a rough fit, not a confirmed value.

Assay: qHTS for Suppressors of FUS Proteinopathy: Primary screen using FUS-linked yeast assay; note: nearly all actives have a fitted effect of over 55% in size;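 for growth rescue (activation): plate controls were DMSO vehicle for no effect and reference control for full effect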
Details: S. cerevisiae FUS-expressing, OD600, 24 h; Potency: growth rescue; growth rescue (activation): at 76.6 µM (top of the series)
Summary of the method: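 Galactose (2%) drives FUS expression in yeast precultured in raffinose; seeding density OD 0.005. Test compounds incubated 24hr at 30C and 99% humidity before absorbance at 600 nm was measured.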
Potency is the fitted concentration of half-maximal effect; tags give direction and shape of the fitted curve.

SMILES	Potency	growth rescue (activation)
Cc1cc(C(=O)Nc2ccc(Br)cn2)sc1C	inactive	
CC(C)(C)OC(=O)NCCCC[C@H](NC(=O)c1[nH]cnc1C(=O)Nc1ccccc1)C(=O)OC(C)(C)C	inconclusive: 22.4 µM [activator, single point]	
CS(=O)(=O)c1ccc(-c2cc(NC=O)c3ncc(-c4ccc(F)cc4)n3c2)cc1	inconclusive: 50.1 µM [activator, single point]	
Cc1ccc(S(=O)(=O)/C(C#N)=C/c2c(N3CCN(Cc4ccccc4)CC3)nc3ccccn3c2=O)cc1	inconclusive: 31.6 µM [activator, single point]	
O=[N+]([O-])c1ccc2nc(SCc3ccccc3Cl)sc2c1	inactive	
CCCn1nnc(NC(=O)COc2ccc(C3CCCCC3)cc2)n1	inconclusive: 50.1 µM [activator, single point]	
Cc1oncc1-c1csc(-c2ccccc2Cl)n1	inactive	
COc1ccc(C)cc1NC(=O)COCc1cc(-c2ccc(F)cc2)on1	inconclusive: 22.4 µM [activator, partial curve, poor fit]	
CS(=O)(=O)c1nc([N+](=O)[O-])nn1CCCc1ccccc1	inactive	
Cc1ccc(C)c(C(=O)CN2C(=O)NC3(CCCCCCC3)C2=O)c1	inactive	
CCCSC1=NC2(CCN(C(=O)NC3CCCCC3)CC2)N=C1c1ccc(Cl)cc1	inactive	
CCOc1cc(/C=C2\SC(=N)N(c3nonc3N)C2=O)ccc1OCCN1CCOCC1	inconclusive: 22.4 µM [activator, partial curve]	
CCCCC1Cc2[nH][nH]c(=O)c2C(c2ccc(Cl)cc2)O1 (stereo not drawn)	inconclusive: 50.1 µM [activator, single point]	
N#Cc1ccc2ccn(CC(=O)NC3CCCCCC3)c2c1	inactive	
COC(=O)C[C@@H]1CC[C@H]2[C@@H](COc3ccc(NS(=O)(=O)c4ccccc4F)cc3C(=O)N2C)O1	inactive	
O=C(Cn1nc(-c2ccccc2Cl)ccc1=O)Nc1ccccc1-c1ccccc1	inconclusive: 50.1 µM [activator, single point]	
COc1ccc(CN2C(=O)C(CC(C)C)Nc3ncnc(N4CCN(c5ccccc5)CC4)c32)cc1 (stereo not drawn)	inconclusive: 35.5 µM [activator, single point] and inconclusive: 39.8 µM [activator, single point]	
CCOC1=C2[C@H](c3ccccc3Cl)N(S(=O)(=O)c3ccc(C)cc3)C[C@H]2C(C#N)(C#N)C(C#N)(C#N)C1	inconclusive: 31.6 µM [activator, single point]	
COc1ccc(-c2cc(C)no2)cc1S(=O)(=O)NCc1ccco1	inactive	
Cc1cccc(C(=O)N[C@@H]2CC[C@@]34CCCN3C(=O)CCC[C@H]4[C@H]2C)c1	inactive	
O=C1NC[C@H](CCCCN2CCN(CCc3ccc(O)cc3)C(=O)C2=O)N(CCC2CCCCC2)C1=O	inactive	

SMILES	Potency	growth rescue (activation)
O=C(CSc1c2c(nc3cc(Cl)ccc13)CCCC2)N1CCN(c2ccccc2)CC1	inconclusive: 50.1 µM [activator, single point]	
COc1ccc(-n2c(SCc3ccccc3F)nc3c([nH]c4ccccc43)c2=O)cc1OC	inconclusive: 44.7 µM [activator, single point]	
Cc1cccc(NC(=O)C(C)Sc2nnc(-c3cccnc3)o2)c1 (stereo not drawn)		inconclusive: -57.2% [activator]
O=C(CSC1=NCCS1)N1N=C(c2cccs2)CC1c1ccc(F)cc1 (stereo not drawn)	inconclusive: 22.4 µM [activator, single point]	
Cc1cc(C)c2c(CC(=O)NCCc3ccccc3)coc2c1	inconclusive: 10 µM [activator, partial curve, poor fit]	
O=C1NC[C@H](c2ccccc2)N(CCc2cc(C(F)(F)F)cc(C(F)(F)F)c2)C1=O	inconclusive: 25.1 µM [activator, partial curve, poor fit]	
CCc1ccc(NC(=O)CSc2nc3c(c(=O)[nH]2)CN(Cc2ccc(C)cc2)CC3)cc1	inconclusive: 31.6 µM [activator, partial curve, poor fit]	
Cc1ccc(C)c(S(=O)(=O)N2CCN(C(=O)c3cc(S(=O)(=O)NCc4ccccc4)ccc3C)CC2)c1	inconclusive: 28.2 µM [activator, single point]	
Cc1ccc(CN2CCC(N3CC(C)OC(C)C3)CC2)cc1 (stereo not drawn)	inactive	
COc1ccc(C(=O)N=c2sc3c(C)ccc(OC)c3n2C)cc1	inactive	
CC(=O)[C@@H]1[C@@H](C(=O)c2ccc(F)cc2)[C@]2(C(=O)Nc3ccccc32)[C@H]2C=Cc3cc(F)ccc3N12	inconclusive: 44.7 µM [activator, single point]	
CN(C)CCNc1c2c(c(C#N)c3nc4ccccc4n13)CCCC2	inconclusive: 50.1 µM [activator, partial curve, poor fit]	
CS(=O)(=O)c1ccccc1C(=O)Nc1cc(Cl)ccc1-n1cncn1	inactive	
Cc1nnc(SCC(=O)N/N=C/c2cn(-c3ccccc3)nc2-c2ccccc2)n1-c1ccccc1	inconclusive: 22.4 µM [activator, partial curve]	
CC(=O)Nc1cc(-c2cccc(C(=O)NCCN(C)C)c2)cn2c(-c3ccccc3)cnc12	inactive	
Cc1nc2ccccc2c2oc(C(=O)NCC3COc4ccccc4O3)cc12 (stereo not drawn)	inconclusive: 28.2 µM [activator, single point]	
N/C(=N\N=C/c1ccc(Br)cc1)N/N=C\c1ccc(Br)cc1	inconclusive: 44.7 µM [activator, partial curve, poor fit]	
COc1cc(-c2nc(C(=O)NC3CCCCC3)cc3c2[nH]c2ccccc23)cc(OC)c1OC	inconclusive: 14.1 µM [activator, partial curve]	
O=C1N2CCc3ccccc3C2CS(=O)(=O)N1CCc1ccccc1 (stereo not drawn)	inactive	
COc1cc(C(=O)Nc2nc(-c3ccc(F)cc3)cs2)ccc1OCC(=O)N1CCOCC1	inconclusive: 50.1 µM [activator, single point]	
C/C(=N\Nc1nc(C)c(C)s1)c1ccc([N+](=O)[O-])cc1	inactive	

SMILES	Potency	growth rescue (activation)
O=C1C(NC(=O)N2c3ccccc3C=Cc3ccccc32)CCCCN1Cc1ccc(Cl)cc1 (stereo not drawn)	inconclusive: 11.2 µM [activator, partial curve, poor fit]	
CCCn1c(SCC(=O)N2CCc3ccccc3C2)nc(O)cc1=O	inconclusive: 50.1 µM [activator, single point]	
COc1ccc(-c2nc(SC)n(C)c(=O)c2C#N)cc1OC	inconclusive: 7.94 µM [activator, partial curve, poor fit]	
O=C1c2cccc3c(O)ccc(c23)C(=O)N1c1ccc(Cl)cc1	inconclusive: 3.16 µM [activator, full curve, poor fit]	
c1ccc(-c2nc(NCc3cccnc3)c3oc4ccccc4c3n2)cc1	inconclusive: 39.8 µM [activator, single point]	
Cc1ccnc(NS(=O)(=O)c2ccc(NC(=O)Cc3cccs3)cc2)n1	inconclusive: 28.2 µM [activator, single point]	
C[C@@H]1CN([C@H](C)CO)C(=O)CCCn2nncc2CO[C@@H]1CN(C)C(=O)Nc1ccc(N2CCCCC2)cc1	inactive	
Cc1cc(C)c(S(=O)(=O)NCCn2c(C)cc3ccccc32)c(C)c1	inconclusive: 35.5 µM [activator, single point]	
CC1(C)Cc2c(sc3nc(SCC(=O)NCc4ccco4)n(-c4ccccc4)c(=O)c23)CS1	inconclusive: 12.6 µM [activator, partial curve]	
N/C(=N\OC(=O)c1ccccc1Cl)c1ccc(Cl)cc1	inactive	
CC(=O)c1ccc(OCc2cc(C(=O)N(C)CC3COc4ccccc4O3)no2)cc1 (stereo not drawn)	inconclusive: 25.1 µM [activator, partial curve]	
O=C(Nc1cccc(C(=O)OCc2cc(=O)n3c4c(sc3n2)CCCC4)c1)c1ccc(Cl)cc1	inconclusive: 39.8 µM [activator, single point]	
COc1ccc(/C(C)=N/NC(=O)c2ccncc2)cc1[N+](=O)[O-]	inactive	
CC(C)(C)c1ccc(S(=O)(=O)NC(=O)C2(C)CCN2C(=O)CC2CCCCC2)cc1 (stereo not drawn)	inconclusive: 28.2 µM [activator, single point]	
COc1ccc(-c2cc(OC(=O)c3ccccc3Cl)c3c(C)oc(C)c3c(=O)c2)cc1OC	inconclusive: 25.1 µM [activator, single point]	
COc1cc(OC)c(NS(=O)(=O)c2c(C)nc3sc(C)cn3c2=O)cc1Cl	inactive	
COc1ccc2c(CNC3CCCCCC3)c(C(=O)O)n(Cc3ccc(C)cc3)c2c1	inconclusive: 31.6 µM [activator, single point]	
C=CC[n+]1c(-c2ccc(Cl)cc2Cl)csc1Nc1ccc(NC(C)=O)cc1	inconclusive: 28.2 µM [activator, single point]	
COc1cc(C2C(C#N)=C(N)Oc3c2ccc2ccccc32)ccc1OCC(=O)Nc1ccc(C)cc1 (stereo not drawn)	inconclusive: 28.2 µM [activator, single point]	
COc1cc(OC)cc(C2=Cc3ccccc3C(CC(=O)c3ccco3)N2c2ccc(-c3cnc(OC)nc3)cc2)c1 (stereo not drawn)	inconclusive: 50.1 µM [activator, single point]	
Cc1cccc(NC(=O)CSc2nnc(CNC(=O)c3ccc(S(=O)(=O)N(C)C)cc3)n2-c2cccc(C)c2)c1	inconclusive: 31.6 µM [activator, partial curve, poor fit]	
